Measurements published in the supplement of paper PMC12217912.
Some of the results follow. Sequences were assembled here from the parent chain. Inactive controls read about 0.05.

B1: TEV protease; numbered along this chain (parent)
chain: MGESLFKGPRDYNPISSSICHLTNESDGHTTSLYGIGFGPFIITNKHLFRRNNGTLVVQSLHGVFKVKDTTTLQQHLVDGRDMIIIRMPKDFPPFPQKLKFREPQREERICLVTTNFQTKSMSSMVSDTSCTFPSGDGIFWKHWIQTKDGQCGSPLVSTRDGFIVGIHSASNFTNTNNYFTSVPKNFMELLTNQEAQQWVSGWRLNADSVLWGGHKVFMVKPEEPFQPVKEATQL

Variants of: B1
Experiment: raw area under fraction-flipped curve 0-4 h after induction (AUC4h, not background-subtracted), DNA-recorder readout of cleavage of the substrate (dimensionless); higher = more cleavage of the substrate by the protease variant
Conditions: temperature: 34 °C; time window: 0-4 h after rhamnose induction
Protocol: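 In vivo DNA recorder in E. coli TOP10(DE3) ΔrhaA at 34 °C. Each TEVp single-site mutant (parent TEVp 0) is paired with a single-site variant of the 7-mer TEVs (canonical ENLYFQ|S). The substrate sits between flexible linkers in a Bxb1-sfGFP-TEVs-SsrA fusion, so cleavage stabilises Bxb1 and speeds flipping of a recombination array, read by NGS. The value is the raw area under the fraction-flipped curve over 0-4 h after rhamnose induction (AUC4h), with ≥20 reads per time point. It is not background-subtracted; inactive controls average about 0.047.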
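Note: Bxb1 expression induced with 0.2% (w/v) L-rhamnose at OD600 near 0.5, cultures sampled hourly, flipped fraction per protease–substrate barcode pair counted by paired-end Illumina sequencing.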

| Variant | area with substrate ECLYFQS | area with substrate EDLYFQS | area with substrate EELYFQS | area with substrate EGLYFQS | area with substrate EILYFQS | area with substrate EKLYFQS | area with substrate EMLYFQS | area with substrate EPLYFQS | area with substrate ERLYFQS | area with substrate ESLYFQS | area with substrate ETLYFQS | area with substrate EVLYFQS | area with substrate EHLYFQS | area with substrate EWLYFQS | area with substrate EYLYFQS | area with substrate EFLYFQS | area with substrate ELLYFQS | area with substrate EQLYFQS |
| --- | --- | --- | --- | --- | --- | --- | --- | --- | --- | --- | --- | --- | --- | --- | --- | --- | --- | --- |
| D27M | 0.0971 | 0.0894 | 0.105 | 0.0934 | 0.0771 | 0.0803 | 0.0841 | 0.0886 | 0.103 | 0.0981 | 0.0934 | 0.0954 | – | – | – | – | – | – |
| D27N | 0.0863 | 0.131 | 0.103 | – | – | 0.115 | 0.11 | – | – | 0.0911 | – | 0.072 | 0.167 | 0.082 | 0.0793 | – | – | – |
| T30E | 0.0896 | 0.116 | 0.0935 | 0.0974 | 0.0935 | – | 0.0676 | – | 0.11 | 0.0762 | 0.1 | 0.106 | 0.124 | 0.0567 | 0.108 | 0.104 | 0.0831 | 0.112 |
| Y34R | 0.0745 | – | 0.111 | – | – | – | 0.113 | – | – | 0.0784 | – | 0.0895 | 0.106 | – | 0.124 | – | 0.0764 | – |
| Y34V | 0.0604 | – | 0.0483 | 0.0679 | 0.0698 | 0.0711 | – | – | – | 0.116 | 0.0804 | – | – | 0.0708 | 0.113 | – | – | 0.108 |
| G37H | 0.0898 | – | – | 0.0824 | – | 0.0864 | – | 0.105 | 0.0941 | 0.0889 | – | 0.0721 | – | 0.0736 | 0.0869 | 0.0994 | – | 0.0831 |
| F38H | 0.0921 | 0.0961 | 0.103 | 0.0926 | 0.0739 | 0.0957 | 0.118 | 0.128 | 0.0897 | 0.106 | – | – | – | – | – | – | – | 0.119 |
| P40V | 0.0697 | 0.145 | 0.125 | 0.112 | 0.106 | 0.101 | 0.125 | – | – | 0.0993 | – | 0.094 | 0.121 | 0.0992 | – | 0.11 | – | 0.118 |
| R50G | 0.094 | – | 0.138 | 0.0927 | 0.148 | – | – | 0.132 | 0.131 | 0.116 | – | 0.0623 | 0.133 | 0.0827 | – | – | – | 0.115 |
| R50M | 0.128 | 0.172 | – | – | 0.127 | 0.142 | 0.165 | 0.16 | 0.167 | 0.159 | – | – | 0.154 | 0.12 | 0.147 | – | 0.16 | 0.135 |
| N52A | 0.0973 | 0.111 | 0.0932 | 0.0771 | 0.0684 | 0.0905 | 0.0716 | 0.161 | – | 0.0817 | – | 0.0642 | 0.126 | – | – | – | 0.0767 | 0.097 |
| N52E | 0.0712 | 0.0853 | – | – | – | – | 0.105 | 0.0856 | – | 0.0741 | – | 0.0747 | 0.0853 | 0.0698 | – | – | – | 0.0767 |
| N52L | 0.0481 | 0.067 | 0.0616 | 0.104 | 0.0643 | – | 0.0657 | 0.102 | 0.0642 | 0.073 | 0.0589 | 0.061 | – | 0.0661 | 0.0614 | – | 0.0662 | 0.0677 |
| N53F | 0.085 | 0.0996 | – | – | 0.061 | 0.085 | – | 0.0867 | 0.0733 | 0.0693 | – | – | 0.0619 | – | – | 0.108 | 0.0817 | 0.0862 |
| N53W | 0.0727 | 0.109 | 0.0866 | – | 0.0862 | 0.0888 | 0.0729 | 0.0839 | 0.0742 | 0.0812 | 0.0792 | 0.0526 | 0.0896 | – | 0.0801 | – | 0.0588 | 0.0835 |
| N53Y | 0.0656 | 0.078 | – | 0.0711 | 0.0794 | 0.0723 | 0.0838 | – | 0.0823 | 0.0678 | – | – | 0.077 | 0.0635 | 0.0899 | 0.0605 | 0.0832 | 0.0797 |
| G54E | 0.0672 | – | 0.0902 | 0.0576 | 0.0759 | 0.0694 | 0.0863 | 0.0754 | 0.0439 | 0.055 | – | 0.0699 | 0.0842 | 0.0793 | 0.0715 | 0.0534 | – | 0.0752 |
| T55A | 0.0878 | – | – | – | 0.0919 | 0.123 | 0.0858 | 0.165 | 0.076 | 0.106 | – | 0.104 | 0.0948 | 0.098 | 0.0864 | 0.183 | – | 0.12 |
| T55N | 0.0968 | 0.119 | – | 0.0793 | 0.0795 | 0.108 | 0.0974 | 0.0741 | 0.102 | 0.103 | – | 0.0938 | – | 0.0723 | 0.0968 | – | – | 0.0953 |
| Q59P | 0.0411 | 0.0495 | – | – | – | – | 0.0275 | – | – | 0.0443 | – | 0.0108 | – | – | 0.0419 | – | – | – |
| L61P | 0.0654 | 0.139 | 0.135 | 0.0897 | 0.0926 | 0.0955 | 0.108 | 0.142 | 0.0819 | 0.113 | 0.118 | 0.0963 | 0.0986 | 0.106 | – | – | – | 0.0988 |
| L61R | 0.0844 | 0.144 | 0.108 | 0.0891 | 0.117 | 0.133 | – | 0.158 | 0.103 | 0.112 | 0.106 | 0.0822 | – | 0.0747 | – | – | 0.105 | 0.13 |
| F65D | 0.0763 | 0.0856 | – | 0.0626 | – | 0.0548 | – | – | 0.0778 | 0.0726 | – | – | 0.0729 | – | – | – | – | 0.102 |
| F65H | 0.112 | 0.165 | – | 0.0801 | 0.0987 | 0.103 | 0.11 | 0.0756 | 0.0981 | 0.0747 | 0.106 | – | – | 0.0994 | 0.104 | – | – | 0.129 |
| K66G | 0.119 | 0.102 | 0.139 | 0.0744 | 0.0561 | 0.103 | – | – | 0.0702 | – | – | 0.0903 | 0.11 | 0.0811 | 0.0979 | – | – | 0.0944 |
| V67F | 0.0363 | – | 0.0979 | 0.0843 | 0.0864 | – | 0.0802 | 0.101 | – | 0.0834 | 0.092 | 0.0834 | – | 0.0832 | – | – | – | – |
| V67K | 0.0457 | – | 0.063 | – | 0.0473 | 0.0695 | – | 0.0541 | – | 0.0736 | 0.0814 | 0.0515 | – | – | 0.0652 | – | 0.0681 | 0.0775 |
| V67N | 0.0731 | 0.0762 | – | 0.0661 | 0.0478 | 0.0739 | – | – | – | 0.0778 | 0.0537 | 0.0762 | – | – | – | – | – | – |
| V67P | 0.0447 | 0.0543 | – | 0.0642 | 0.0387 | 0.0385 | – | 0.0474 | 0.0348 | 0.048 | – | 0.0424 | 0.0435 | 0.0349 | 0.0526 | 0.0424 | 0.0383 | 0.0582 |
